Over roughly 33,000 sequences, “E-score (-0.5 to 0.5)” has its median near -0.032; the highest 2% begin near 0.36. The list shows a part of the results.

For this assay, the target named is T1, Sko1 (UniProt Q02100).
T1 sequence: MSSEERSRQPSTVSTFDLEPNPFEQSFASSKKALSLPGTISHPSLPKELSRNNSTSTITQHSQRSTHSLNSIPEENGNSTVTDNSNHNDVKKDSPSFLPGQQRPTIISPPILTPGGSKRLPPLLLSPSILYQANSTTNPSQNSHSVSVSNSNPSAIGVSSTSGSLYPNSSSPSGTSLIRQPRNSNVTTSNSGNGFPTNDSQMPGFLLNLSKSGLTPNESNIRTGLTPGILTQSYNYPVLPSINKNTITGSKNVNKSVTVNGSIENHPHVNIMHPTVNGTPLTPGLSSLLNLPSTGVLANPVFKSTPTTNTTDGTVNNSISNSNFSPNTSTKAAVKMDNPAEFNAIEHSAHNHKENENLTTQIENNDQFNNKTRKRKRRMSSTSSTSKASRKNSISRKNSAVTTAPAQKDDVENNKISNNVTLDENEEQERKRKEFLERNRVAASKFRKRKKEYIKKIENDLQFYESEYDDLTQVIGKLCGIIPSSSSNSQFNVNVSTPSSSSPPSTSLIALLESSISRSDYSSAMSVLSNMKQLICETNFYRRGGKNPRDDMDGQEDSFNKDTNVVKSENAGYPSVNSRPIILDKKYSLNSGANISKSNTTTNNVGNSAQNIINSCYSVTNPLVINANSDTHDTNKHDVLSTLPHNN
As to the kind of experiment: PBM E-score (8-mer binding enrichment) (E-score (-0.5 to 0.5)); higher = stronger / more preferred TF binding; most listed sequences are background and not binding sites. Conditions: protein concentration: 200 nM; construct: GST-full length. In short, it runs like this:
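GST-tagged yeast TFs (full-length or DNA-binding domain) were made by PURExpress in vitro transcription/translation and applied at about 100-200 nM to universal all-10-mer Agilent arrays. The arrays were made double-stranded by primer extension, on fresh or once-stripped slides. Bound protein was detected with fluorescent anti-GST, and scans were normalised with masliner. Each ungapped eight-base word, pooled with its reverse complement, received an E-score (modified Wilcoxon-Mann-Whitney statistic) from the Universal PBM Analysis Suite.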
Regarding AGAATGCT, the “PBM E-score” value worked out at 0.00749.
The same measure for TACATGGA: -0.0702; for AAATGTTG: 0.103; for CCAGCCAC: -0.255.
Regarding ATTATTGA, the “PBM E-score” value worked out at 0.109.
With ATGAAACG, the “PBM E-score” value turned out to be 0.0866.
Take GAGCCTAC: the “PBM E-score” value was -0.0608.
As for CCCCGTAA, the “PBM E-score” value came to 0.0319.
Next, CACAGGAC: -0.0874; CAAGCGCC: -0.262; AGGGTTGC: -0.0198.
The same measure for AGTAGTTC: 0.107; for GTCGGGCA: -0.121.
In the case of ACCTAGAG, the “PBM E-score” value is -0.196.
The same measure for ACTTTAGG: -0.0354; for AAATCGAT: 0.134.
Next, CTTTGCAA: -0.117; GACTCCGC: -0.206.
Consider CCTCTCAG, for which the “PBM E-score” value was -0.389.
Next, GGCGCTAA: -0.178; AGACGTTG: 0.111.
Next, ACCGGAAC: -0.175; ACCCGTTG: -0.33; CACCGTGC: -0.0312.
The same measure for CCCGGACC: -0.222; for CCGCGGAA: -0.228; for CTACGAAA: 0.214.
Regarding CATAAAGA, the “PBM E-score” value is 0.279.
Next, AGCACCAC: -0.158.
For CTCTGACA, the “PBM E-score” value is -0.0282.
Next, AATACCGT: 0.136.
Next, GCCGTGCC: -0.309; TCAGTACA: -0.0302.
As to ATGTTCCC, the “PBM E-score” value was -0.243.
Next, AACTGCAA: -0.0572; CCCCGTCA: 0.0543.
Next, ACCCCTAG: -0.227.
The same measure for ACGTATAA: 0.457.
Consider ATTCCAGC, for which the “PBM E-score” value was -0.137.
The same measure for CGGATGCA: -0.246; for GGTGAGAC: -0.149; for GAATTTGC: 0.06.
The same measure for AGTCTTCC: -0.203; for ACTAAAGT: 0.0923; for AGGAAAGC: -0.187.
Next, CGACAATC: -0.0122.
Regarding GAACTCAC, the “PBM E-score” value is -0.00045.
Next, CTTGAAGC: -0.104.
On to ATAGGCGC, for which the “PBM E-score” value is -0.208.
Next, ACTGACCC: -0.242; AGTAGTGG: -0.0292.
Consider CGGGTCTA, for which the “PBM E-score” value is -0.0366.
The same measure for AATTAGAA: 0.133.
Next, AGGCGGGC: -0.11; ACATGTCA: 0.294; ACCCGTAC: -0.107.
Take ATAAAGGC: the “PBM E-score” value was -0.124.
Take AGAACTCA: the “PBM E-score” value is -0.0391.
The same measure for AGTGATCA: 0.0281; for CCAAACCA: -0.0285.
Next, GGCGCACC: -0.36.
Next, AGACGTAT: 0.441; AACTGCAG: -0.163.
Turning to GTTATTAA, the “PBM E-score” value is 0.206.
Next, GCTGCAGA: -0.132.
The same measure for GACACTTA: -0.00276; for AAACACTT: 0.0996.
Next, ATGTCAAA: 0.244.
As to TAGGATCA, the “PBM E-score” value was determined as 0.0401.
Next, AACGCGAG: 0.0305.
Next, ACACGCAA: 0.376.
For GCCCCGGA, the “PBM E-score” value is -0.37.
Next, GCAACCCA: 0.0272; AGTTTGAT: -0.0174; CAACCCCA: -0.0938.
The same measure for CAAAGTGA: 0.0251; for CAGACACC: -0.178.
Next, ACGATACG: 0.302.
With CGGTCTCC, the “PBM E-score” value was -0.293.
Next, CGAAGGGA: -0.0711; GGCAACGA: -0.0624; GAATCGGA: 0.0357.
CCCGACCG: the “PBM E-score” value was -0.326.
Next, CTAGTCCA: -0.241; CTTTTAAA: 0.19; CCGCAGCA: -0.216.
The same measure for ATTACCTG: 0.067.
The same measure for AAGGCCGT: -0.196.
In the case of ACCGCATG, the “PBM E-score” value came to 0.136.
With AGTGTTAC, the “PBM E-score” value is 0.165.
Next, AGGCGCCG: -0.0266; ACGCTTGA: 0.162; AAATGGCA: 0.0596.
For the sequence GTAGTATA, the “PBM E-score” value turned out to be 0.148.
The same measure for AAGGCTTA: -0.102.
As for CATGCTCG, the “PBM E-score” value was -0.134.
Next, ATGGGACG: -0.0288; CAAAGGGC: -0.252; ATGTTAAT: 0.129.
The same measure for GAGGGACA: -0.236.
The same measure for CCAGCCGC: -0.189.
For the sequence CCATTGAC, the “PBM E-score” value was -0.0416.
The same measure for AGATTAAA: 0.227.
Turning to ATTCTAAA, the “PBM E-score” value stood at 0.16.
Regarding TCCGTTCA, the “PBM E-score” value is -0.237.
The same measure for AGAGTACG: 0.184; for AACGTAAT: 0.48; for AGGCTCGC: -0.31.
The same measure for CGAAGGAA: -0.0432.

These data come from the supplement of paper PMC3334620.
